Source: PubChem BioAssay AID924 (National Center for Advancing Translational Sciences (NCATS), 2007)
Where “and” joins values, the source holds several entries; their conditions need not be identical. Equal entries are not always repeated. The whole screen tested about 130,000 compounds, of which about 1,200 (0.92%) were called active. The shares of active, inactive and inconclusive entries below differ from those in the screen. Calls come from the whole dose curve; as a rule, active = well fitted cell-killing curve with a large enough effect; inconclusive = small, poorly fitted or top-dose-only effect; inactive = no such curve, though single readings can be large or run the other way. Potencies beside an inconclusive call are fits to weak or partial responses and may not hold up.

Experiment: qHTS Screen for Compounds that Selectively Target Cancer Cells with p53 Mutations: Cytotoxicity of p53ts Cells at the Permissive Temperature; note: nearly all actives have a fitted effect of over 55% in size;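 for activity change, negative = cytotoxicity: 0% = DMSO and -100% = full killing by reference compound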
Settings: H1299-p53A138V at 32C, ATP luminescence viability, 24 h; activity change, negative = cytotoxicity: at 46.1 µM (top of the series)
Excerpt: NIH Chemical Genomics Center [NCGC] NIH Molecular Libraries Screening Centers Network [MLSCN] MLSCN Grant: 1 X01 MH079844-01 Assay Submitter (PI): Dr. SUN, YI, University of Michigan NCGC Assay Overview: Synthetic Lethal Screen for Compounds to Kill Cancer Cells with p53 Mutation. Tumor suppressor gene p53 serves as a major cellular barrier against tumorigenesis. […] The goal of this screening is to identify small molecule probes that selectively kill cancer cells with mutations in p53. This screening was carried out using two lines of H1299 lung cancer cells. The H1299-p53 A138V line express a temperature sensitive p53 mutant (p53ts) in which the mutant p53 protein (A138V) is in the mutant confirmation when grown at 39C (the nonpermissive temperature) and in the wild type conformation when grown at 32C (the permissive temperature). A H1299-neo line (p53 null) grown at both 39C and 32C were used as counter-screens to filter out false positive associated with temperature shifting. The small molecular compounds that selectively target mutant p53-containing cancer cells were selected as candidate probes for further study. A cytotoxicity assay based on the measurement of ATP contents in cells was used in this screen. Concentration-responses of all the compounds in the library collection were determined in qHTS using the cell lines and temperature conditions as above.
NCGC Assay Protocol Summary: Both the H1299-p53A138V and H1299-neo cell lines were provided by Dr.Yi Sun, a PI at the University Michigan. The cells were maintained and cultured at 37C. The resuspended frozen cells were used to plate the cells in the 1536-well assay plates at a density of 600 cells per well in 5 ul medium. The assay plates with the cells were incubated at 37C for 16 to 30 hours before the experiments. The library compounds in DMSO solution were added to the cells in assay plates and incubated 24 hours at 39C (for mutant p53 conformation) or 32C (for normal p53 conformation as control). An ATP_lite assay kit (PerkinElmer) was used to determine the cell viability. Tomaxifen (100uM) was used as the positive control for cell killing. Data were normalized to the controls for basal activity (DMSO only) and 100% killing (100uM tamoxifen). AC50 values were determined from concentration-response data modeled with the standard Hill equation. P53 assay protocol: 1. Reagent; 5 uL H1299-p53A138V or H1299-neo cell cells/well 2. Time; overnight; 37C incubation 3. Compounds; 23 nL; 5.9 nM to 46 uM 4. Controls; 23 nL; Tamoxifen 100 uM 5. Time; 24 hr; 37C incubation 6. Reagent; 3 uL; ATP_Lite reagent 7. Time; 20 min; Room Temperature 8. Detection; Luminescence; Viewlux plate reader Keywords: p53, synthetic lethal, cancer, cell viability, cytotoxicity, H1299 cell line, luminescence, MLSMR, MLSCN, NIH Roadmap, qHTS, NCGC
Potency is the fitted concentration of half-maximal effect; tags give direction and shape of the fitted curve.

Compound | Potency | activity change, negative = cytotoxicity
Cc1ccc(/C=N/N2CCN(C3c4ccccc4-c4ccccc43)CC2)s1 | inactive | 
CCc1cc2c(c(CC)n1)CCC(=O)N2Cc1ccc(-c2ccccc2-c2nn[nH]n2)cc1 | inactive | 
COc1ccc(NC(=O)C=C(C)C)cc1Cl | inconclusive: 20 µM [cytotoxic, partial curve] | 
Cc1cc(Nc2cccc(C(F)(F)F)c2)nc2ccc(NC(=O)c3cccnc3)cc12 | active: 12.6 µM | 
COc1cccc(CNC(=O)Cn2c(SCC(=O)Nc3ccc(C)c(C)c3)nc3ccccc32)c1 | inconclusive: 17.8 µM [cytotoxic, partial curve, poor fit] | 
O=C(CCCC1=NS(=O)(=O)c2ccccc2N1)N1CCN(c2ccc(Cl)cc2)CC1 | inconclusive: 31.6 µM [cytotoxic, single point] | 
CCOC(=O)N1CCN(Cc2nc3cc(NC(=O)c4ccc([N+](=O)[O-])cc4)ccc3n2C(C)C)CC1 | inconclusive: 5.62 µM [cytotoxic, single point] | 
O=c1c2ccccc2nc2n1CCc1c-2[nH]c2ccccc12 | inconclusive: 12.6 µM [cytotoxic, partial curve] | 
CC(C)Oc1ccc(C(=O)Nc2nc3c(s2)CC(C(C)(C)C)CC3)cc1 (stereo unspecified) | inactive | 
Cc1ccc(OCc2occc2C(=O)O)cc1 | inconclusive: 12.6 µM [cytotoxic, partial curve] | 
N#C/C(=C\c1ccc(-c2ccc(Cl)c(C(=O)O)c2)o1)c1nc2ccccc2[nH]1 | inconclusive: 12.6 µM [cytotoxic, single point] | 
CC(C)N1CCC2(CC1)N=C(c1ccc3c(c1)OCO3)CC(c1cc(Cl)ccc1O)N2 (stereo unspecified) | inconclusive: 15.8 µM [cytotoxic, single point] | 
COCC(=O)O[C@]1(CCN(C)CCCc2nc3ccccc3[nH]2)CCc2cc(F)ccc2[C@@H]1C(C)C | inconclusive: 31.6 µM [cytotoxic, single point] | 
Cc1ccccc1CS(=O)(=O)c1ncc(Cl)c(C(=O)Nc2nnc(C(C)C)s2)n1 | active: 15.8 µM | 
Cc1cccc(N2CCN(C(=O)CN3C(=O)COc4ccc(S(=O)(=O)N5CCCC5)cc43)CC2)c1C | inactive | 
CCCCCCOc1ccc(/C(N)=N/O)cc1 | inconclusive: 15.8 µM [cytotoxic, partial curve] | 
CC(C)c1ccc(-c2noc(SCC(=O)N(C)c3ccc(F)cc3)n2)cc1 | inactive | 
CC(=O)N1CCCc2ccc(NC(=O)c3ccc(C(F)(F)F)cc3)cc21 | inactive | 
CCc1c(C)sc(NC(=O)c2cc(C)no2)c1C#N | inconclusive: 15.8 µM [cytotoxic, partial curve] | 
Cc1ccc(S(=O)(=O)N2CCCC2C(=O)NCCc2nc3ccccc3[nH]2)cc1 (stereo unspecified) | inconclusive: 10 µM [cytotoxic, partial curve] | 
COc1ccc(C(=O)Oc2ccc(/C=N/NC(=O)c3ccccc3OC)cc2[N+](=O)[O-])cc1 | inconclusive: 0.02 µM [cytotoxic, full curve, poor fit] | 
COc1ccc(CNc2cc(-c3ccccc3OC)ncn2)c(OC)c1 | inactive | 
CC(C(=O)NCc1cccc(Br)c1)n1ncn2cccc2c1=O (stereo unspecified) | inconclusive: 7.94 µM [cytotoxic, partial curve] | 
CCOC(=O)c1cnc(-c2ccccc2)nc1N | inconclusive: 15.8 µM [cytotoxic, single point] | 

Compound | Potency | activity change, negative = cytotoxicity
Cc1cccc(OCCCSc2nc(-c3ccc(C(C)(C)C)cc3)nc3cc(=O)[nH]n23)c1C | inconclusive: 31.6 µM [cytotoxic, single point] | 
Cc1cc(Nc2cccc(F)c2)nc(-c2ccccc2O)n1 | inconclusive: 12.6 µM [cytotoxic, single point] | 
O=C(CSc1nnc(-c2ccncc2)n1-c1ccccc1)Nc1ccc(Br)cc1 | inactive | 
O=C(NCc1ccccc1Cl)c1ccc(NC(=O)c2nsc3ccccc23)cc1 | inconclusive: 20 µM [cytotoxic, partial curve] | 
Cc1ccc(-c2noc(-c3nnn(CC(=O)Nc4cccc(C(F)(F)F)c4)c3N)n2)cc1 | inactive | 
CCOC(=O)NC(=O)CSc1nc(C)cc(C(F)(F)F)c1C#N | inconclusive: 10 µM [cytotoxic, single point] | 
COc1ccc2c(c1)c1c(c(=O)n(Cc3ccccc3)c(=O)n1Cc1ccccc1)n2C | inactive | 
CC(C)c1ccc(-c2noc(SCC(=O)N3CCCCC3C)n2)cc1 (stereo unspecified) | inconclusive: 12.6 µM [cytotoxic, partial curve] | 
Cc1ccc(-n2ncc3c(N(C)C)ncnc32)cc1Cl | inconclusive: 3.16 µM [cytotoxic, full curve] | 
CCOc1ccc(CNCc2c(C(=O)O)c(C)n(Cc3ccc(C)cc3)c2C)cc1 | inactive | 
Cc1cc(C)cc(NC(=O)c2ccc3oc(=O)c(S(=O)(=O)c4ccc(F)cc4)cc3c2)c1 | inconclusive: 12.6 µM [cytotoxic, partial curve] | 
Cc1cccc(CNc2ncnc3ccc(-c4cccc(C#N)c4)cc23)c1 | inconclusive: 25.1 µM [cytotoxic, single point] | 
COc1ccc(-n2c(=O)c(-c3cccs3)nc3cnc(OC)nc32)cc1 | inactive | 
O=C1c2ccccc2C(=O)C1c1ccnc2ccccc12 | inconclusive: 5.62 µM [cytotoxic, partial curve] | 
COc1ccc(NC(=O)c2ccc(-c3ccc(-c4noc(C)n4)cc3C)cc2)cc1N1CCN(C)CC1 | inconclusive: 20 µM [cytotoxic, single point] and inconclusive: 31.6 µM [cytotoxic, single point] | 
CCCCS(=O)(=O)c1oc(-c2cccs2)nc1S(=O)(=O)c1ccc(F)cc1 | active: 20 µM | 
Cc1ccc(C(=O)Nc2nnc(S(=O)(=O)N3CCCCCC3)s2)cc1 | inconclusive: 10 µM [cytotoxic, partial curve] | 
[O-][N+]1=c2ccc(Nc3ccccc3)cc2=NC12CCCCC2 | active: 5.01 µM | 
CCOc1ccc(-n2nc(CO)c(C(=O)NCc3ccccn3)n2)cc1 | inconclusive: 12.6 µM [cytotoxic, partial curve] | 
Cc1ccc(C2CC2C(=O)NNC(=S)Nc2cccc(C)c2)cc1 (stereo unspecified) | inconclusive: 7.94 µM [cytotoxic, partial curve] | 
CCC(=O)Nc1nnc(C)s1 | inconclusive: 11.2 µM [cytotoxic, single point] | 
O=C(Nc1nc2n(n1)C(c1ccccc1)C=C(c1ccccc1)N2)c1ccccc1 (stereo unspecified) | inactive | 
O=C1CC(c2ccccc2)Cc2nc(NCc3ccco3)ncc21 (stereo unspecified) | active: 6.31 µM | 
c1ccc(-n2ncc3c(NCc4cccs4)ncnc32)cc1 | inactive | 

Compound | Potency | activity change, negative = cytotoxicity
Cc1oc(-c2ccc3c(c2)OCCO3)cc1C(=O)O | active: 20 µM | 
COc1ccc(-n2nc3cc(C)c(N)c(Br)c3n2)cc1 | active: 12.6 µM | 
COc1cccc(C(=O)Nc2nc3ccc(S(=O)(=O)N4CCCC4)cc3s2)c1 | inconclusive: 35.5 µM [cytotoxic, single point] | 
CCCc1cc(C(=O)Nc2sc3c(c2C#N)CCC3)no1 | inactive | 
O=C(O)C1CC=CCC1C(=O)NCc1ccc2c(c1)OCO2 (stereo unspecified) | inconclusive: 0.178 µM [cytotoxic, full curve, poor fit] | 
COC(=O)C1=C(C)N=C2SCCC(=O)N2C1c1ccc(OC(=O)c2ccco2)cc1 (stereo unspecified) | inconclusive: 1 µM [cytotoxic, full curve] | 
Cn1ccnc1SCC(=O)Nc1ccc2ccccc2c1 | inconclusive: 10 µM [cytotoxic, partial curve] | 
Cc1ccccc1-c1nc2c3c(-c4ccccc4)c(-c4ccccc4)oc3ncn2n1 | inactive | 
CCOC(=O)c1nn(-c2ccc(F)cc2)c2c1CC/C2=C/c1ccccc1 | inconclusive: 3.55 µM [cytotoxic, full curve, poor fit] | 
Cc1ccc(CNS(=O)(=O)c2cc(C(=O)Nc3ccc(C(C)C)cc3)ccc2F)cc1 | inconclusive: 6.31 µM [cytotoxic, full curve, poor fit] | 
CCN(CC)c1ccc(NC(=O)c2ccccc2F)cc1 | inconclusive: 10 µM [cytotoxic, partial curve] | 
COc1ccccc1OCCCCn1c(C2CC(=O)N(c3ccccc3Cl)C2)nc2ccccc21 (stereo unspecified) | inconclusive: 31.6 µM [cytotoxic, single point] | 
Cc1ccc(NC(=O)/C(C#N)=C/c2ccccc2Cl)cc1C | inconclusive: 15.8 µM [cytotoxic, single point] | 
O=C(CSc1nnc(-c2ccccc2Br)o1)N1CCN(C(=O)c2ccco2)CC1 | inactive | 
CCCCNc1ncnc2c1cnn2-c1ccccc1 | inconclusive: 20 µM [cytotoxic, single point] | 
COc1ccc2nc(NCN3C(=O)c4ccccc4C3=O)sc2c1 |  | inactive: 8.11% [at 9.22 µM]
COc1ccccc1N1CCN(CCCCNC(=O)c2ccc3ccccc3c2)CC1 | inconclusive: 10 µM [cytotoxic, partial curve] | 
O=C(CCc1nc(-c2ccccc2F)no1)NC1CCCCC1 | inactive | 
N#Cc1nc(-c2ccc(COc3ccccc3)o2)oc1NCc1cccnc1 | inactive | 
CCCN(CCc1ccccc1)[C@H]1CCc2c(O)cccc2C1 | inactive | 
COc1ccc(NC(=O)c2ccc3c(=O)n4nc(Nc5ccccc5C)sc4nc3c2)cc1Cl | active: 10 µM | 
CCN(C(=O)c1cc2c(=O)oc3ccccc3c2s1)c1ccc(C)c(C)c1 | inactive | 
O=C(CSc1nnc(Cc2ccccc2)n1Cc1ccco1)NC1CCCC1 | inconclusive: 20 µM [cytotoxic, single point] | 
